Data published in the supplement of paper PMC11880418.
Counter-ions that a name gives are not always drawn. The list shows a part of the results. The data scatter; read single values as rough.

Each compound was assayed on SUM159 (assay: ALDHbr (CSC) cell proportion score relative to DMSO vehicle (ratio to DMSO); breast (SUM159) / gastric (MKN45) / pancreatic (PANC1) / colon cancer lines; ALDHbr cells have high ALDH activity and are rich in cancer stem cells (CSC); higher = more CSC (ALDHbr) cells remaining). Conditions: 10 µM; 72 h.
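Also: High-content imaging of ALDEFLUOR-stained cells with Hoechst-labelled nuclei in 384-well plates, triplicate wells, scored as Z-score against 0.1% DMSO vehicle, negative meaning fewer ALDHbr cells.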

Structure (SMILES)	ALDHbr
C[C@]12CC[C@@H]3c4ccc(O)cc4CC[C@H]3[C@@H]1CCC2=O [Estrone]	0.949
CCCCC1(COC(=O)CCC(=O)O)C(=O)N(c2ccccc2)N(c2ccccc2)C1=O [Suxibuzone]	0.815
CCCCNc1c(C(=O)OCC)c(C)nc2c1cnn2CC [Tracazolate hydrochloride]	0.865
Cn1cnc([N+](=O)[O-])c1Sc1ncnc2[nH]cnc12 [Azathioprine]	0.837
O=C(CCCCC(=O)Nc1c(I)cc(I)c(C(=O)O)c1I)Nc1c(I)cc(I)c(C(=O)O)c1I [Iodipamide]	1.09
CN(C)CCOC(=O)COc1ccc(Cl)cc1 [Meclofenoxate hydrochloride]	1.24
C#CCN(C)CCCOc1ccc(Cl)cc1Cl [Clorgyline hydrochloride]	1.09
C#C[C@]1(O)CC[C@H]2[C@@H]3CCC4=C(CCC(=O)C4)[C@H]3CC[C@@]21C [Norethynodrel]	1.27
c1cnc(N2CCN(Cc3ccc4c(c3)OCO4)CC2)nc1 [Piribedil hydrochloride]	0.965
CCN(CC)CCOC(=O)C(c1ccccc1)c1ccccc1 [Adiphenine hydrochloride]	1.04
OCCOCCN1CCN(C2=Nc3ccccc3Sc3ccccc32)CC1 [Quetiapine hemifumarate]	0.854
CC(C)N1CCN(c2ccc(OCC3COC(Cn4cncn4)(c4ccc(Cl)cc4Cl)O3)cc2)CC1 (configuration not stated) [Terconazole]	0.741
CN1CCC[C@@H]1CCO[C@](C)(c1ccccc1)c1ccc(Cl)cc1 [Clemastine fumarate]	0.576
CC(C)Oc1ccc2c(=O)c(-c3ccccc3)coc2c1 [Ipriflavone]	2.85
O=C(Cn1ccnc1[N+](=O)[O-])NCCO [Etanidazole]	0.953
O=C1c2c(O)cccc2Cc2cccc(O)c21 [Anthralin]	1.96
O=C(CCCN1CC=C(n2c(=O)[nH]c3ccccc32)CC1)c1ccc(F)cc1 [Droperidol]	0.875
N/C(=N\C(=O)c1nc(Cl)c(N)nc1N)NCc1ccccc1 [Benzamil hydrochloride]	0.924
CN1CCN2c3ncccc3Cc3ccccc3C2C1 (configuration not stated) [Mirtazapine]	1.03

Structure (SMILES)	ALDHbr
Nc1c2c(nc3ccccc13)CCCC2 [Tacrine hydrochloride]	1.06
CC(=O)Nc1ccc(O)cc1 [Acetaminophen]	0.895
CN(C)CCOC(=O)C(c1ccccc1)C1(O)CCCC1 (configuration not stated) [Cyclopentolate hydrochloride]	0.995
CN(C)CCN(Cc1ccc(Cl)cc1)c1ccccn1 [Chloropyramine hydrochloride]	0.965
COc1c(O[C@@H]2O[C@H](CO)[C@@H](O)[C@H](O)[C@H]2O)cc2c(c1OC)-c1ccc(SC)c(=O)cc1[C@@H](NC(C)=O)CC2 [Thiocolchicoside]	0.983
CC(C)Nc1cccnc1N1CCN(C(=O)c2cc3cc(NS(C)(=O)=O)ccc3[nH]2)CC1 [Delavirdine]	0.48
CCCCC(=O)N(Cc1ccc(-c2ccccc2-c2nnn[nH]2)cc1)[C@H](C(=O)O)C(C)C [Valsartan]	1.09
OC(CCN1CCCCC1)(c1ccccc1)c1ccccc1 [Pridinol methanesulfonate salt]	1.14
C/C=C(/C(=C/C)c1ccc(O)cc1)c1ccc(O)cc1 [Dienestrol]	0.906
CC[N+](C)(C)Cc1ccccc1Br [Bretylium tosylate]	0.982
COC1=C(OC)C(=O)C(CCCCCCCCCCO)=C(C)C1=O [Idebenone]	0.902
C[C@H](CCC(=O)O)[C@H]1CC[C@H]2[C@@H]3CC[C@@H]4C[C@H](O)CC[C@]4(C)[C@H]3CC[C@]12C [Lithocholic acid]	1.31
Nc1nc(F)nc2c1ncn2[C@@H]1O[C@H](CO)[C@@H](O)[C@@H]1O [Fludarabine]	0.09
O=C(O)Cc1ccccc1Nc1c(Cl)cccc1Cl [Diclofenac sodium]	0.97
O=C1Nc2ccc(Cl)cc2[C@@](C#CC2CC2)(C(F)(F)F)O1 [Efavirenz]	0.819
CCN(CC)CCNC(=O)c1cc(Br)c(N)cc1OC [Bromopride]	1.03
CN(Cc1ccc(C(C)(C)C)cc1)Cc1cccc2ccccc12 [Butenafine Hydrochloride]	1.08
CCCCc1ncc(/C=C(\Cc2cccs2)C(=O)O)n1Cc1ccc(C(=O)O)cc1 [Eprosartan mesylate]	1.13
